{"source": "paper PMC4351876", "about": "(Cancer prevention research (Philadelphia, Pa.), 2013)", "key": {"[1]": {"settings": "previously reported; cited from earlier work"}, "[2]": {"test": "Population pharmacokinetics of erlotinib in plasma", "format": "in vivo, human", "settings": "ln2 × V/CL"}}, "data": [{"smiles": "C#Cc1cccc(Nc2ncnc3cc(OCCOC)c(OCCOC)cc23)c1", "note": "[erlotinib]", "values": [{"measurement": "Tmax", "setting": "[1]", "result": "2 to 3", "unit": "h"}, {"measurement": "dose limiting toxicity (DLT)", "setting": "human, in vivo", "result": "None"}, {"measurement": "maximum allowable dose (MAD) of erlotinib", "setting": "human, in vivo, 6 months", "result": 75, "unit": "mg"}, {"measurement": "maximum tolerated dose (MTD) of erlotinib", "setting": "in combination with celecoxib 400mg BID, 3+3 escalation", "result": 50, "unit": "mg/day"}, {"measurement": "average t1/2", "setting": "[2]", "result": 25.6, "unit": "h"}]}]}
